Measured values: PubChem BioAssay AID588342 (National Center for Advancing Translational Sciences (NCATS), 2011)
About 25,000 (6.9%) of roughly 360,000 compounds were called active. The inconclusive results got no clear call from the source; some entries with a clear call stand among them for comparison. The call rests on the fitted dose curve; in most records, active means well fitted inhibition curve with a large enough effect; inconclusive means small, poorly fitted or top-dose-only effect; inactive means flat fitted curve, though single readings scatter. Where the call is inconclusive, the potency comes from a doubtful curve fit.

Molecular target: Luciferin 4-monooxygenase (Photinus pyralis) (UniProt P08659)
Test: qHTS profiling assay for firefly luciferase inhibitor/activator using purifed enzyme and Km concentrations of substrates (counterscreen for miR-21 project); further: nearly all actives have a fitted effect of over 55% in size
Details: purified FLuc, luminescence inhibition; series mostly up to 57.5 µM
Excerpt: MLPCN Grant: 1 R21 NS059478-01 (miR-21 grant) Assay Provider: NCGC NCGC Assay Overview: Firefly (Photinus pyralis) luciferase is one of the most commonly used transcriptional reporters for a number of reasons. It is considered one of the more dynamically responsive reporters -that is, responsive to changes in reporter transcription - as it requires no post-translational modifications and is enzymatically active directly after protein synthesis (Wood, 1998). Additionally, the half-life of the luciferase protein is short relative to other reporter-gene products (Wood, 1995). Whereas reporters with long half-lives potentially allow for increased signal due to accumulation of reporter-gene product, once accumulated in the cell, dynamic changes in reporter-gene expression may be difficult to detect(Fan and Wood, 2007; Almond et al., 2004). It has been shown that wild-type P. pyralis luciferase has a half-life of approximately […] hours in mammalian cells (Thompson et al., 1991). Firefly luciferase reporter-gene assays are also generally considered one of the most sensitive assay types (Wood, 1995; Wood, 1998). Although light produced in a bioluminescence reaction is of lower intensity than that produced during fluorescence emission, this is offset by little to no background light inherent to luminescent assays. Thus the luciferase reporter can be expressed at much lower levels than fluorescent proteins while still providing robust signal. # However, it was initially observed, in 1991, by Thompson et al., that compounds that resemble the substrates of firefly luciferase (FLuc) can act as competitive inhibitors of the enzyme, and that these compounds, upon interaction with luciferase in the cell, can actually stabilize the protein and increase its half-life. Accumulated intracellular FLuc protein can be measured as an increase in luminescence signal, upon addition of detection reagents (which contain high concentrations of FLuc substrates) commonly used in high-throughput screening. In cell-based reporter gene assays that use FLuc as the reporter gene to quantitate the potential influence of a given compound against the target biology, this apparent increase in luminescence can mistakenly be interpreted as identification of a compound that is active against the target of interest. This is the case for the miR-21 FLuc reporter gene assay used to identify inhibitors of the miR-21 pathway (PubChem AID 2289) - compounds of interest will inhibit miR-21 biogenesis/expression or activity, and are identified by causing an increase in luminescence, due to increased FLuc translation. However, FLuc inhibitory compounds that stabilize the FLuc protein will give an identical read-out, making it difficult to distinguish compounds that are active against the target from those active against FLuc. Previous profiling work to determine the prevalence of compounds that affect FLuc enzymatic activity (PubChem AID 411) identified that ~3% of the MLSMR library (then at ~72K) inhibited FLuc. […] Since the MLSMR had grown to ~350K compounds, and since it was expected that a significant percentage of compounds found active in the miR-21 FLuc assay would be FLuc inhibitors, the library was screened for activity against FLuc using a biochemical assay of purified FLuc and KM concentrations of FLuc substrates (D-luciferin and ATP).
NCGC Assay Protocol Summary: Reagents: 50mM Tris acetate, pH 7.5; 10mM Mg acetate; 10uM D-luciferin (Sigma #L9504); 10uM ATP; 0.01% Tween-20; 0.05% BSA; 10nM P. pyralis luciferase (Sigma #L9506) Control compounds used were two known firefly luciferase inhibitors (compounds (2) and (5) in Auld et al., 2010), and DMSO. […]
Tags describe the fitted curve by direction and shape.

Chain of UniProt P08659 (P08659 whole entry, looked up): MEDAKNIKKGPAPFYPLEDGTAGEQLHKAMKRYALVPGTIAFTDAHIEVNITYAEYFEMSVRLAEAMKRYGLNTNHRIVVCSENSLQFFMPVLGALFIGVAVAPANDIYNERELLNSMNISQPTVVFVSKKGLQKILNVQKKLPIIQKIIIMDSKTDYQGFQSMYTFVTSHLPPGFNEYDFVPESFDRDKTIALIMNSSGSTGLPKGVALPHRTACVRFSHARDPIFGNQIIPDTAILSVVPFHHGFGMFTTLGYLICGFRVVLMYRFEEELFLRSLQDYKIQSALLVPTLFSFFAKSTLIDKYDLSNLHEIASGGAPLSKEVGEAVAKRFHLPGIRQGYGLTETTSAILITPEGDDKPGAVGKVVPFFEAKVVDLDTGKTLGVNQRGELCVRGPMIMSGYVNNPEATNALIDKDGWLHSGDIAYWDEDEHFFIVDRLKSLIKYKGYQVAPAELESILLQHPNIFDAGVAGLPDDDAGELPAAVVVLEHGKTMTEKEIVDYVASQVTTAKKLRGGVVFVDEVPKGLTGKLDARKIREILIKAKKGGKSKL

SMILES	Potency
Nc1nonc1C(=O)N/N=C/c1cc2c(cc1[N+](=O)[O-])OCO2	inactive
COc1ccc(/C=C/C(=O)c2cc(Br)ccc(=O)c2O)cc1	inconclusive: 26.9 µM [inhibitor, partial curve, poor fit]
COc1cc(/C=C2/C(=O)NN(c3cccc(Cl)c3)C2=O)cc(Br)c1O	active: 30.1 µM
CC1Cc2ccccc2N1C(=O)CSc1nc2ccccc2o1 (configuration not stated)	inconclusive: 21.3 µM [inhibitor, single point]
COc1ccc(-n2cc(CNCCCn3ccnc3)c(-c3cccc(F)c3)n2)cc1	inconclusive: 19 µM [inhibitor, partial curve]
CNC(=S)NNC(=O)c1ccc(N(C)C)cc1	inactive
O=C(COC(=O)c1ccc(O)cc1O)Nc1cc(-c2ccccc2)nn1-c1ccccc1	inconclusive: 26.9 µM [inhibitor, partial curve]
CC(C)c1nnc(NC(=O)c2nc(SCc3ccc(F)cc3)ncc2Cl)s1	inconclusive: 12 µM [inhibitor, partial curve]
CCOc1cccc(/C=N/NC(=S)Nc2ccccc2[N+](=O)[O-])c1O	inconclusive: 0.338 µM [inhibitor, full curve]
O=C(Nc1ccc2oc(-c3ccccc3)nc2c1)c1ccccc1F	inconclusive: 2.69 µM [inhibitor, full curve]
Cc1cc2n(n1)CCCN2C(=O)Nc1ccc(Cl)cc1	inconclusive: 37.9 µM [inhibitor, partial curve, poor fit]
CCc1cc2c(cc3c(=O)n(CC(=O)N4CCCCC4)nc(CC)n32)s1	inactive
COC(=O)C1CN(C(=O)COc2ccc(Cl)c(C)c2)c2ccccc2O1 (configuration not stated)	inactive
COc1ccc(N2CCN(c3nc(NCCc4ccc(OC)c(OC)c4)nc(OC)n3)CC2)cc1	inconclusive: 26.9 µM [inhibitor, partial curve, poor fit]
Cc1c(-c2ccccc2)c(=O)oc2c(CN3CCN(C)CC3)c(O)ccc12	inactive
Cc1oc2ccc(OCc3ccc(F)cc3)cc2c1C(=O)O	inconclusive: 33.8 µM [inhibitor, partial curve, poor fit]
Cc1ccc(/C(N)=N/OC(=O)c2cccs2)cc1	active: 1.9 µM
N#C/C(=C\c1ccc(O)c(O)c1)C(=O)c1ccc(O)c(O)c1	inconclusive: 37.9 µM [inhibitor, single point]
COc1ccc(NC(=O)Cc2csc(COc3cccc(C)c3)n2)cc1OC	inconclusive: 16.9 µM [inhibitor, partial curve]
CCc1ccc(-n2c(SCC(=O)NC(C)CC)nc3n[nH]c(C)c3c2=N)cc1 (configuration not stated)	inactive
Nc1[nH]n2c(=O)cc(-c3ccccc3)nc2c1N=Nc1ccc(S(N)(=O)=O)cc1	active: 9.53 µM
O=S1(=O)CCN(Cc2csc(-c3cccs3)n2)CC1	active: 19 µM
CCOC(=O)C(=O)/C(C#N)=C/Nc1ccc(Cl)cc1	inconclusive: 23.9 µM [inhibitor, single point]
Cc1nn(-c2ccc(C(F)(F)F)cn2)c(C)c1Oc1ccccc1O	inconclusive: 37.9 µM [inhibitor, single point]

SMILES	Potency
Fc1cccc(Cl)c1CNc1n[nH]c(-c2ccco2)n1	inconclusive: 23.9 µM [inhibitor, partial curve]
N/C(=N\NC(=O)Nc1ccc(Cl)cc1)c1ccccn1	inconclusive: 21.3 µM [inhibitor, partial curve]
O=C(O)c1cc(-c2ccc(/C=N/N3C(=O)C4C5C=CC(CC5)C4C3=O)o2)ccc1Cl (configuration not stated)	active: 19 µM
COC(=O)c1ccc(COc2cccc3c2CCN(Cc2ccccc2)C3=O)o1	inactive
Cn1c(C(=O)NCc2ccccn2)cc2c(=O)n3ccccc3nc21	active: 15.1 µM
O=C(Nc1c(C(=O)O)oc2ccc(Br)cc12)c1ccccc1	inconclusive: 26.9 µM [inhibitor, single point]
CC(C)CCNC(=O)c1ccc(Cn2c(SCC(=O)NC(C)C)nc3ccccc3c2=O)cc1	inactive
CCc1ccc(C(=O)/C=C/Nc2ccc(S(=O)(=O)Nc3onc(C)c3C)cc2)cc1	active: 10.7 µM
O=C(Nc1ccc(F)cc1)N(CCCN1CCOCC1)Cc1cc2cc3c(cc2[nH]c1=O)OCO3	inactive
CCOC(=O)N1CCN(Cc2nc3cc(NC(=O)c4cccs4)ccc3n2C)CC1	inactive
O/N=C1\CCCCc2ccccc21	inconclusive: 26.9 µM [inhibitor, single point]
O=C(Nc1ccc2nc(SCC(=O)N3CCCc4ccccc43)sc2c1)c1cccc(Cl)c1	inactive
CCc1ccc(/C=N/NC(=O)c2cc(-c3ccncc3)nc3ccccc23)s1	inconclusive: 6.75 µM [inhibitor, partial curve]
COc1ccc2c(CC(=O)Nc3cccc(S(=O)(=O)N4CCOCC4)c3)coc2c1	inconclusive: 16.9 µM [inhibitor, partial curve]
CCOC(=O)CC(=O)CSc1ncnc2c1oc1ccccc12	inconclusive: 16.9 µM [inhibitor, partial curve]
Cc1ccc(NC(=O)CN2C(=O)CSc3ccc(S(=O)(=O)N4CCCC4)cc32)c(C)c1	inactive
Cc1cc(C)nc(NC(=O)c2ccccc2O)n1	inconclusive: 23.9 µM [inhibitor, single point]
COc1ccc(C(=O)Oc2c(Sc3ccccc3)c(C)nn2-c2ccccc2)cc1OC	inactive
COc1cccc(NS(=O)(=O)c2ccc3c(c2)CCN3C(C)=O)c1	inactive
COc1cc(NC(=O)COC(=O)c2ccccc2F)cc(OC)c1	inconclusive: 33.8 µM [inhibitor, partial curve, poor fit]
COc1cc(OC)cc(C(=O)N[C@H](C(=O)Nc2nc(-c3cc(OC)ccc3OC)cs2)C(C)C)c1	inactive
O=C(O)c1ccc(COc2c(F)c(F)cc(F)c2F)cc1	inconclusive: 26.9 µM [inhibitor, partial curve, poor fit]
CCCOc1ccc(Nc2cc(C)nc(C)n2)cc1	inactive
CCC(C)NC(=O)CCC(=O)Nc1ccc2nc(N3CC(C)CC(C)C3)cc(C)c2c1 (configuration not stated)	inconclusive: 37.9 µM [inhibitor, single point]

SMILES	Potency
Cc1cc(-n2cnc(-c3cn(C)nc3C)n2)no1	inconclusive: 23.9 µM [inhibitor, partial curve]
CC(C)N(Cc1nnc(-c2ccc(Cl)cc2)o1)C(=O)c1cc2ccccc2o1	inconclusive: 37.9 µM [inhibitor, partial curve, poor fit]
CCCCOc1ccc(C(=O)Nc2ccncc2)cc1	inconclusive: 23.9 µM [inhibitor, partial curve]
Fc1ccc(-c2ccc(NCCN3CCOCC3)nn2)cc1	inconclusive: 37.9 µM [inhibitor, single point]
CCCc1c(C)[nH]c2ccc(C(=O)O)cc2c1=S	inconclusive: 15.1 µM [inhibitor, partial curve, poor fit]
O=C(N/N=C/c1ccccc1O)C(=O)N1CCCCCC1	inconclusive: 37.9 µM [inhibitor, partial curve, poor fit]
O=C(Nc1nnc(-c2ccc3c(c2)CCCC3)o1)c1ccccc1Cl	active: 23.9 µM
CCOc1ccc(/C=C/C(=O)OCC(=O)Nc2cccc(S(=O)(=O)N3CCCC3)c2)cc1	active: 2.13 µM
CC(C)(C)c1ccc(OCCCC(=O)N2CCOCC2)cc1	inconclusive: 23.9 µM [inhibitor, single point]
Nc1nc2nc(-c3ccc(F)cc3)cc(C(F)(F)F)n2n1	inactive
CCC(=O)N/C(N)=N/c1nc(C)c2cc(OC)ccc2n1	active: 10.7 µM
Cn1c(N)c(C(=O)COC(=O)c2cc(-c3ccco3)nc3ccccc23)c(=O)n(Cc2ccccc2)c1=O	inconclusive: 10.7 µM [inhibitor, partial curve]
Cc1ccnc(NC2CCCCC2)c1	inconclusive: 37.9 µM [inhibitor, partial curve, poor fit]
Cc1ccc(OCC(=O)O/N=C(\N)c2ccncc2)c(C)c1	active: 10.7 µM
COc1cccc(NC(=O)COC(=O)c2ccccc2C(=O)N2CCN(c3ccccc3)CC2)c1	inactive
CCCC(C)C(=O)Nc1ccc2c(c1)OCCO2 (configuration not stated)	inconclusive: 23.9 µM [inhibitor, partial curve, poor fit]
COc1ccc(NC(=O)NC(=O)c2ccccc2)cc1	inconclusive: 0.675 µM [inhibitor, full curve]
O=C(NCCc1ccccc1)c1cccc([N+](=O)[O-])c1	inconclusive: 30.1 µM [inhibitor, single point]
COC(=O)C(C)NC(=O)N1CCN(c2nnc(C)c3c(C)n(-c4ccc(Cl)cc4)nc23)CC1 (configuration not stated)	inactive
Cc1cccc(CS(=O)(=O)c2ncc(Cl)c(C(=O)Nc3nc4ccc(F)cc4s3)n2)c1	inconclusive: 5.36 µM [inhibitor, full curve, poor fit]
COc1ccc2oc(C(=O)OCC(=O)N3CCCC3=O)c(C)c2c1	inconclusive: 10.7 µM [inhibitor, partial curve]
Cn1nnnc1SCCNCc1ccccc1OCc1ccc(Cl)cc1Cl	inactive
CCOCCCNC(=O)Nc1cc(C(=O)NCc2ccc(C(C)C)cc2)ccc1N1CCCC1	inconclusive: 12 µM [inhibitor, partial curve, poor fit]
CCN(CC)c1ccc(CNc2ccc(Br)cn2)cc1	inconclusive: 4.26 µM [inhibitor, partial curve, poor fit]
